In paper PMC6919601, “Identification of Plasmodium dipeptidyl aminopeptidase allosteric inhibitors by high throughput screening” (PLoS ONE, 2019):
Hit rate of the full screen: of about 110,000 compounds, about 230 (0.21%) showed an effect of 50% or more. This is one part of the list.

Molecular target: DPAP1 (Plasmodium falciparum, UniProt Q8IIJ9)
Assay: primary screen, percent inhibition; read by cleavage of a fluorogenic dipeptide substrate; higher = more effect of the substance
Design: species or system P. falciparum D10 trophozoite lysates; single well
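Note: 30 min substrate incubation versus DMSO and 10 µM JCP410 controls.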

Sequence of DPAP1 (Q8IIJ9 whole entry, looked up): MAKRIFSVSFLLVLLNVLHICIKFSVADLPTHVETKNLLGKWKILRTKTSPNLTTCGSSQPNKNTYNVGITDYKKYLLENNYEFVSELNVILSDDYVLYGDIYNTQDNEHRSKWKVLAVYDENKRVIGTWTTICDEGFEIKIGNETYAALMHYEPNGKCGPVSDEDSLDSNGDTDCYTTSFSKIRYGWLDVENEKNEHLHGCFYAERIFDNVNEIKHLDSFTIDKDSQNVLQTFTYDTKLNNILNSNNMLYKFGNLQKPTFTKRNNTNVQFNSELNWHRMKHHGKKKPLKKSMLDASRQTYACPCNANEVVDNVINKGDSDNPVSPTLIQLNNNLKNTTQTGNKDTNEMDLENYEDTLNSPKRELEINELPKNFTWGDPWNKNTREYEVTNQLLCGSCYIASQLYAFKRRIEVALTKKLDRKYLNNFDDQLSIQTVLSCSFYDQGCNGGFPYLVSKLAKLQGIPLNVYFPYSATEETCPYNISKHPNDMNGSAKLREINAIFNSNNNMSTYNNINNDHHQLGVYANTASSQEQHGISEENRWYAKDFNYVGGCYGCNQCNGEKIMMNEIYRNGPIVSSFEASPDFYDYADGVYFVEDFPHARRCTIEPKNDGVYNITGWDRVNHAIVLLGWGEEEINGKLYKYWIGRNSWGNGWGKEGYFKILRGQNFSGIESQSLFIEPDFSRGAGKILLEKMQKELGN

Row | SMILES | % Inhibition @ 10 uM [%]
1 | CCCC[C@H](NC(=O)[C@@H](NC(=O)c1ccc(CN)cc1)[C@H](C)CC)C(=O)CO | -5.64
2 | COc1ccc(N2CCN(C(=O)c3sccc3C)CC2)cc1 | -3.78
3 | CC1CN(C(=O)C2C3CCC(O3)C2C(=O)O)CC(C)O1 (stereo not shown) | -5.07
4 | c1ccc2nc(-c3nc4ccccc4o3)ccc2c1 | 1.35
5 | CCOC(=O)C1=CN(C(C)C)C=C(C(=O)OCC)C1c1ccccc1OCC | 3.45
6 | COc1ccc(/C(O)=C/C2=NCCNC2=O)cc1OC | -6.78
7 | CCn1c(C)c(C)c2cc(C(=O)NCCN3CCN(C)CC3)ccc21 | -7.04
8 | CC1(C)Cc2ccccc2C2=C(c3ccc4ccccc4n3)C(O)(C(F)(F)F)C(=O)N21 (stereo not shown) | -2.63
9 | O=C(CN1CCN(CC(=O)c2ccccc2)CC1)c1ccccc1 | 2.38
10 | O=C(Cn1ncn2c(cc3cc(F)ccc32)c1=O)NCc1ccco1 | 1.68
11 | Cc1ccccc1-c1nnc(CC23CC4CC(CC(C4)C2)C3)o1 | 1.22
12 | O=C1OC(c2ccco2)=N/C1=C\c1ccc(OCc2ccccc2)cc1 | -0.48
13 | O=C1N(Cc2ccccc2)CCCC12CCCN(Cc1ccccc1)C2=O | 2.8
14 | COc1ccc(C(=O)N/C(=C\c2ccco2)C(=O)NC2CCS(=O)(=O)C2)cc1 (stereo not shown) | -0.178
15 | CCC(C)Sc1nc2c(c(=O)[nH]c(=O)n2C)n1Cc1ccccc1Cl (stereo not shown) | 2.46
16 | O=C(NC1CC1)C1=CCN(S(=O)(=O)c2ccc(Br)cc2)CC1 | 0.277
17 | Cc1cc2nc(-c3ccncc3)cc(C(F)(F)F)n2n1 | -2.91
18 | CCOc1ccc(CNCc2c(C(=O)O)c(C)n(Cc3ccccc3C)c2C)cc1OC | -5.72
19 | Cc1ccc(C(=O)c2cnc3ccccc3c2N2CCCC2)cc1 | -5.03
20 | OCC1CC(CO)C(F)(C(F)(F)F)C1(F)F (stereo not shown) | 2.6
21 | C=CCNc1nc(Cl)nc(NCc2ccco2)n1 | -3.35
22 | CCC1(C)OC(=O)N(CCOC23CC4CC(CC(C4)C2)C3)C1(C)O (stereo not shown) | -5.63
23 | c1ccc(Cc2nc3c(ccc4nsnc43)[nH]2)cc1 | -2.14
24 | CCSc1nc(N)c(C#N)c(-c2ccccc2)c1C#N | -1.07
25 | CC(C)C[C@H](NS(=O)(=O)c1cccc(Br)c1)C(=O)NCC#N | -0.207

Row | SMILES | % Inhibition @ 10 uM [%]
26 | c1ccc2c(c1)NC1CCCCC1C1(CCCCC1)N2 (stereo not shown) | -3.86
27 | COc1cccc(NCN2C(=O)c3ccccc3C2=O)c1 | -3.52
28 | CCOC(=O)N1CCc2c(sc3c2C(=O)NC(c2cc4c(cc2Cl)OCO4)N3)C1 (stereo not shown) | 4.08
29 | O=C(NCc1cccc(CNC(=O)C2CCCO2)c1)C1CCCO1 (stereo not shown) | -2.6
30 | COc1ccc(-c2nnc(N3CCC(C)CC3)c3ccccc23)cc1 | -2.75
31 | CC[C@H](NC(=O)C1(NC(=O)c2ccc(-c3ccccc3Cl)c(Cl)c2)CCCCCC1)C(=O)c1nc2ccccc2o1 | -1.5
32 | O=S(=O)(NC1CC1)c1ccc(Br)cc1 | -2.77
33 | Cc1nn(C(C)C(=O)NCCCN(C)C2CCCCC2)c(=O)c2cc3occc3n12 (stereo not shown) | -2
34 | CCc1cc(=O)oc2c3c(c(Cl)cc12)OCN(Cc1ccc2c(c1)OCO2)C3 | 2.54
35 | COc1ccc(-c2ccc(CNCCSc3nnnn3C)o2)cc1Cl | 1.46
36 | Fc1ccccc1CN1CCN(c2cccc(Cl)c2)CC1 | 3.25
37 | Cc1cnc(C)c(N2CCC(O)CC2)n1 | 0.51
38 | CC(=O)N1CCN(Cc2c(Cl)cccc2Cl)CC1 | -4.95
39 | CC(=O)c1c(C)n(-c2ccc(C)cc2C)c2ccc(OCC(N)=O)cc12 | -1.33
40 | Cc1cccc(N2CCc3c2nc2ccccc2c3NC(=O)CN2CCCCC2)c1 | -3.63
41 | CC1CCCC(C)N1CCCNC(=O)c1csc2c1CCCC2 (stereo not shown) | -1.44
42 | CCOc1ccccc1N1CCN(C(=O)c2cccc([N+](=O)[O-])c2C)CC1 | -4.03
43 | Cc1ccc2nc(Cl)c3cc(C(=O)N4CCN(C(=O)c5ccco5)CC4)sc3c2c1 | -1.7
44 | Cc1cc(C)c(C#N)c(SCC(=O)Nc2nonc2N)n1 | 1.11
45 | c1ccc(CCNC2CCCc3c2[nH]c2ccc(-c4ccccc4)cc32)cc1 (stereo not shown) | 7.72
46 | Cc1ccc(C(=O)NS(=O)(=O)c2ccccc2)cc1 | -1.93
47 | O=[N+]([O-])c1cnc(-c2ccccc2)nc1 | 0.215
48 | Cc1nc2c(C)cccc2c(O)c1CN1CCCC(C)C1 (stereo not shown) | 2.17
49 | O=C(O)c1ccc(N2C(=O)c3ccc(C(=O)c4ccc5c(c4)C(=O)N(c4ccc(C(=O)O)cc4)C5=O)cc3C2=O)cc1 | -3.55
50 | CCN1CCN(C2=NC(=O)/C(=C/c3ccccc3O)S2)CC1 | 0.561

Row | SMILES | % Inhibition @ 10 uM [%]
51 | CCCCS(=O)(=O)N1CCC(c2nnnn2-c2ccc(F)cc2)CC1 | -4.67
52 | CCOC(=O)c1[nH]c2cc(OC)c(OC)cc2c1N1C(=O)CCC1=O | -1.7
53 | Cc1ccc(C2=NN(CCC(=O)N3CCOCC3)C(=O)CC2)cc1 | 1.62
54 | CCn1nccc1C(=O)Nc1ccc(C)c(Cl)c1 | 3.9
55 | CCC(C)C(Nc1ncnc2ccccc12)C(=O)O (stereo not shown) | 1.52
56 | OCCN(CCO)Cc1cc(F)ccc1F | -5.31
57 | Cc1ccc(-c2c(Nc3cccnc3)c(=O)c2=O)cc1 | 3.04
58 | Cc1ccccc1C(=O)Nc1cccc(C(F)(F)F)c1 | -3.94
59 | O=C(O)c1c(CNCCC2=CCCCC2)c2ccccc2n1Cc1ccccc1F | -3.21
60 | N=C1/C(=C\c2ccc(SCc3ccc(Cl)cc3)o2)C(=O)N=C2SC=NN12 | -7.13
61 | CCOCCCNC(=O)CS(=O)(=O)Cc1nc(-c2ccc(C)cc2)oc1C | -5.82
62 | O=C(NC1CCN(Cc2ccccc2)CC1)c1ccccc1Br | -1.22
63 | O=C(C1CCN(c2nc3ccccc3n3cccc23)CC1)N1CCN(c2ccccn2)CC1 | 5.04
64 | O=C(Nc1ccc(S(=O)(=O)Nc2cnc3ccccc3n2)cc1)c1cccnc1 | -1.88
65 | Cc1ccc(S(=O)(=O)N(C)CCc2c[nH]c3ccccc23)cc1 | -3.04
66 | CC1CCCCN1C(=S)NCCc1ccccc1 (stereo not shown) | -2.5
67 | Cc1cc(=O)n2nc(N(C)CC(=O)O)sc2n1 | -1.6
68 | COC(=O)Nc1ccc(Br)cn1 | 6.5
69 | CCOc1ccccc1/C=C1N=C(/C=C/c2ccccc2)OC/1=O | 7.01
70 | Cc1cccc(C)c1NC(=O)C(c1ccccc1)N(C(=O)C1CCC(=O)N1)c1ccccc1 (stereo not shown) | 2.39
71 | Cc1cccc(OCC(=O)N2CCc3ccccc32)c1 | -1.38
72 | COC(=O)C(Cc1ccccc1)NC(=O)c1ccc(-c2ccccc2)cc1 (stereo not shown) | -2.51
73 | CCC(C(=O)Nc1ccc(S(=O)(=O)N2CCC(C)CC2)cc1)c1ccccc1 (stereo not shown) | -0.0938
74 | O=C(CCCSc1nc(-c2ccco2)cc(C(F)(F)F)n1)NCc1ccncc1 | 0.0289
75 | O=C(COc1ccc(Cl)cc1Cl)N(c1ccccc1)c1ccccc1 | 4.93

Row | SMILES | % Inhibition @ 10 uM [%]
76 | CC(=O)c1ccc(NC(=O)C(C(C)C)N2C(=O)c3ccccc3C2=O)cc1 (stereo not shown) | 8.19
77 | CCc1ccc(-n2c(SCC(=O)NCc3ccco3)nc3nnc(C)c-3c2N)cc1 | 4.15
78 | CC(=O)N1c2ccccc2N=C2CC(c3ccc(N(C)C)cc3)CC(O)=C2C1c1ccccc1 (stereo not shown) | -2.68
79 | COCCNC(=O)C(C)n1nc(C)c2c(C)n(-c3ccccc3)nc2c1=O (stereo not shown) | -1.57
80 | CC(=O)Nc1ccc(N/C=C(/C#N)c2nc(-c3ccc(-c4ccccc4)cc3)cs2)cc1 | 1.08
81 | Cc1ccc2[nH]c(SCC(=O)Nc3cccc(C(F)(F)F)c3)nc2c1 | 0.5
82 | COc1ccc(CC(=O)N2CCN(c3ccc(Cl)cc3)CC2)cc1OC | 1.15
83 | O=C(NCCCc1nc2ccccc2n1Cc1ccc(F)cc1)c1ccco1 | 2.62
84 | O=C(NCCCc1nc2ccccc2n1C/C=C/c1ccccc1)c1ccco1 | 3.74
85 | Cc1nc(-n2cccc2)sc1C(=O)NCc1ccccc1Cl | 0.0882
86 | Cc1ccccc1OCc1nnc(-c2ccccc2Cl)o1 | -4.82
87 | CC1CCCC(NC(=O)CN(C)S(=O)(=O)c2cc(Br)cnc2N)C1C (stereo not shown) | 3.3
88 | COc1ccc(C)c2sc(N(CCN(C)C)C(=O)CN3C(=O)c4ccccc4C3=O)nc12 | 6.08
89 | COC(=O)C1=C(C)NC(=O)CC1c1cccc(Br)c1 (stereo not shown) | 3.48
90 | Cc1ccc(CNC(=O)C(NS(=O)(=O)c2cccs2)c2ccccc2)cc1 (stereo not shown) | -3.36
91 | O=c1ncn(-c2cccc(F)c2)c2ncccc12 | -7.17
92 | O=C(c1ccccc1)N1CCC2(Cl)CCCCC2C1c1ccccc1 (stereo not shown) | -3.53
93 | O=C(CCc1nc2cccnc2n1-c1ccccc1)NC1CCCC1 | -1.08
94 | Cn1cc(C(=O)N2CCN(Cc3ccccc3)CC2)c2c3ccccc3n(C)c2c1=O | -6.26
95 | COc1cc(OC)cc(C(=O)Nc2ccc(S(=O)(=O)N3CCC(C)CC3)cc2)c1 | -1.78
96 | Cc1ccc(CC(=O)N2CCCC(c3nc(O)c4nnn(Cc5cccs5)c4n3)C2)cc1 (stereo not shown) | -2.92
97 | Cc1c(C(=O)N2CCOCC2)oc2c1-c1nn(CC(=O)NC(C)c3ccccc3)cc1CC2 (stereo not shown) | 1.17
98 | O=C(NCCCN1CCOCC1)c1cccnc1SCc1ccccc1Cl | -0.458
99 | CC1CCCCN1C(=O)c1ccc([N+](=O)[O-])cc1Cl (stereo not shown) | 2.46
100 | Cc1nn(C(C)C(=O)N2CC(C)CC(C)C2)c(=O)c2cc3occc3n12 (stereo not shown) | -0.281
